From the supplement of paper PMC10126150
Sequences with one replicate were seen in a single cluster, so their values are uncertain.

Test system: ATP
Assay: switch fluorescence ratio, 500 uM ATP over buffer (Cy3 cluster intensity, sum of 5 cycles each) (fold (ratio)); higher = stronger signal-on switching upon ATP binding; sequences stand for … in TCGTCGGCAGCGTCAGATGTGTATAAGAGACAGTTTTTTTTTTTTTTTTTTTTTTTTT…TC
Details: aptamer strand: ATP DNA aptamer (quencher-CACCTGGGGGAGTATTGCGGAGGAAGG + anchor), 100 nM annealed; ATP concentration: 500 uM; one replicate
Method in brief: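 Five buffer/ATP imaging cycles were run on Cy3-labelled switching-strand clusters on a modified Illumina MiSeq flow-cell, with NaOH stripping and re-annealing between cycles. In each cycle, clusters annealed to 100 nM quencher-labelled ATP aptamer were imaged in selection buffer, then after 15 min with 500 uM ATP at 22 °C. Per cluster, the fluorescence ratio is summed target-cycle over summed buffer-cycle Cy3 intensity, averaged per switch-domain sequence. Only clusters within 100-1000 RFU were kept.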
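Also: ATP exposure 15 min at 22 °C before imaging.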

Sequence | switch fluorescence ratio
AAAACCTAGT | 1.05
AGCAAAATTG | 1.09
ATCGTGCATC | 1.01
GTCAGTGGTA | 1.01
AAGTTCGCGA | 1.02
CTGGTCTGCA | 1.16
TCTATAACTT | 1
CCATTACTA | 1
GGCTCTTTGG | 0.97
TGATATTGAT | 0.978
AAGTTGTGCC | 1.02
CTGGGTTTAG | 0.963
TTAATAATTG | 1.01
CATAAAGGGC | 0.988
TTTTTACAG | 1.05
ACACTTATCA | 1.06
ACCAGCCTAA | 1.08
TGCCCGGCAG | 1.03
CCCTGGTTAG | 1.07
AGATAGCTGT | 0.983
ATTTTGACA | 0.989
CAAGGTCAAA | 1.04
TGAAAGGCCT | 1.02
TACTCGGGTC | 1.02
CTATACAGT | 0.992
CATAAAGGGG | 0.992

Sequence | switch fluorescence ratio
ACCATCGCCT | 1
TGGCTGGAGC | 1.03
TCTGGTCCTC | 1.01
GATGAACTGA | 1.05
AGACCATTTA | 0.994
GTAGTGGGG | 1
CCTATCAGTG | 1.08
CTCAACGTCC | 1.19
AGTCTATGGG | 0.983
TCCCTTGAAG | 0.977
CGGATAGACC | 1.02
TTGGTCTTCG | 0.976
CGCTGCAGCG | 1
GAGGGCACCT | 1.08
ACCCGGGTTC | 1.03
ATGTTTTGGC | 0.953
TGCGAATTGA | 0.979
GTGGCTACGA | 0.983
TGTTGACACT | 0.934
GCTCCAAAGT | 1.07
TCGTTCCTTA | 0.97
TAGTGTGGCT | 0.991
ACACGAGGCG | 1.04
GGGAGTACTA | 1
CATGATCGCC | 0.976
TTTGACTT | 1.05

Sequence | switch fluorescence ratio
AACAGGTTAT | 0.964
GAAACATCAT | 1.01
CATATACCTT | 1.29
TGTGAATA | 0.993
ACCTCGTCGC | 1.12
TAAGCGCTGT | 1.01
TCGTTAGCAG | 2.43
AGCGTATGGT | 1.02
ATGGACGATT | 0.978
GTATACTAAG | 1.02
CTAATCGTCG | 1.06
ACTAAAGGA | 1.02
CAGGTTTCGC | 1.01
TAAGATCTGC | 0.951
GACTCGCCGT | 1.02
GCTCATACAC | 1.08
GCGCGCATAC | 1.73
GTTGGCACA | 0.987
TGCTTGAAAG | 0.961
AGGGTCCTCG | 0.979
GCGAGAGGCG | 1.01
GAGTGACGTG | 1.03
CCAATCCAAG | 1.05
CGTGCCCATC | 1.02
TATATAATAG | 0.985
TACTTGGTAT | 0.989

Sequence | switch fluorescence ratio
GATCGTTAAT | 1.03
AATGCGGCGC | 1.04
AGGACATTTA | 1.01
CGCTATCTAG | 1.04
TTGGTTGAT | 0.997
CAGGGTGACG | 0.95
CACAGGGGCG | 0.965
AACCCGCGTA | 1.16
AGGGTGTGTA | 1.01
GAGGCGCTAC | 1.02
ATACTTTTTC | 0.996
TTCAGATCGC | 1.09
TGCGGCTGG | 0.99
TTACGTCTAA | 1.09
CGATAATGCG | 1.09
GGACTCTGCT | 1.1
GACGAAGGCG | 1.03
ATCAATGATT | 0.997
GCTATTTAAC | 1
AGACACGGT | 1.01
AACGCCGCGA | 1.42
TCTGAGCCGG | 1.02
GCGCGGACGG | 1.04
ATTCGAGCGG | 1.02
TACAGGTCTA | 0.959
CGAGCAGGCT | 0.934

Sequence | switch fluorescence ratio
ACTACCGTTT | 1.06
ACCGTCCCTT | 1.08
TCCATCTAAT | 0.993
ATTGGGCGTG | 1
TGGGGATAG | 1.01
TTCTGAATCT | 0.982
GGAGGTAATC | 1.06
ATTACTCATT | 1.01
GATGATGCGT | 1.1
GGCAGGTGGC | 1.09
CACCTATATG | 1.03
GATACGCTTG | 1.03
TAAGTCTATT | 1.03
AAACGATCCC | 0.942
TGAATTGGCA | 1.03
AGAATTATTC | 0.972
AGGAGCAAGA | 1.96
TCCCGAAATA | 2.41
TGAATGCATA | 1.06
CATCCAATC | 1.72
ACGCCAGGT | 1.85
TTGCTGCTAG | 1.06
CATATGCAAG | 1.09
ATTGCATATT | 1.01
CCTTACACCC | 1.7
CACCAGATTA | 0.974

Sequence | switch fluorescence ratio
AGAGCCGAAA | 0.971
CATTCACAGG | 1.22
GGATCTTTGT | 0.992
GGGGCAAGTG | 0.972
TTTTACCG | 0.985
GGATGAACTT | 1.01
CGGGTCGTAT | 1.01
TAAAACGTGT | 1.01
AGGTTGCGTC | 1
ACTAAGAGCT | 1.04
GCGAGGAATT | 0.983
GGGTTAGCAG | 0.997
ATAATCTGAA | 0.999
AAATAAGGG | 1.04
GCTTAAGAA | 1.01
GGATTTTTA | 1.02
CGGAATTAGT | 0.999
GCGAGCAGGA | 0.988
CGCGATAGAG | 1.01
CCCTGGGAAT | 0.984
AAACTTAGGC | 0.959
ATGAAATAT | 0.978
CTGTGTGCGA | 1.05
GACATAAAGG | 0.963
AGCTGGTCCT | 0.982
TACGAGATCA | 1.02

Sequence | switch fluorescence ratio
CGCTATTGAG | 1.01
TGGGGGACCG | 0.976
AAATCGCCTA | 1.01
GCGGATGGGT | 0.976
ACCGTAGGAG | 1.05
CTTAGGCATG | 0.958
TCAATTTTGG | 0.964
TATTTAAAGA | 1.02
ATTGGCTTGA | 1.04
TTTTCAGAGA | 0.977
ATCGGGAATC | 1.12
TTAGGAGGC | 1.03
CAACTCGGAC | 1.06
ATACGTAAGC | 1.25
CTTCTTTTG | 1.04
TATGAGTAGT | 1.02
ATGTAGGGCG | 0.968
GGGCGTCATC | 1.04
TGGTTCGTA | 1.04
TCGCGCCCAC | 1.49
AAGAGTTTTG | 0.971
GCCCGTTGCG | 0.969
ATATGGCGCG | 0.918
TGTGCAATG | 5.75
ACAGCCAGTT | 1.03
ATATAATAAC | 0.987

Sequence | switch fluorescence ratio
ACAAAGAACT | 1.03
TACGGCTCAG | 1.03
ATTTGTTTGT | 0.994
GGTTACTTTC | 1.06
GTCCGCTCTT | 1.11
AATACGCGAA | 1.26
GGGCTAGATT | 1.04
AATGTAAGCT | 1.02
TACGGGTTGC | 1
ATCGTTGAAG | 0.963
ATAGACGGGT | 0.98
TGGGCAGTAA | 1.09
GGTGAGGAGT | 1
GTTCCCTGCT | 1
CTGATAGTAT | 1.02
TCGACGCTCT | 1.95
TGGGTCTAAT | 1.02
CAGCCAAGCT | 0.973
CTGTTAACGT | 1.02
